Data published in the supplement of paper PMC4466236.
In all, about 33,000 sequences were measured (“E-score (dimensionless, -0.5 to 0.5)”: median about -0.058, highest 2% from about 0.35 on). Some of the results follow.

system: MvaT; assay: PBM 8-mer E-score (mean of HK and ME arrays) (E-score (dimensionless, -0.5 to 0.5)); higher = stronger relative binding preference; most listed sequences are background and not binding sites
How it was run: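 Full-length P. aeruginosa MvaT carrying an N-terminal glutathione S-transferase tag was tested by protein binding microarray following a previously described protocol. Two universal double-stranded 60-mer arrays, ME and HK, were used, each with a constant 25-mer primer region and a variable 35-mer region covering all 8-mers. The rank-based E-score is the mean of the two arrays, parsed with a custom script. Its range runs from -0.5 to 0.5 for each 8-mer.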

Sequence | PBM 8-mer E-score
AGACCGAC | -0.00362
AACAGCCT | -0.188
ATCCTGAC | -0.088
CGAAATCC | -0.146
TGGAGTAA | 0.117
CCCAGGGA | -0.269
TCTTGCAA | 0.186
ATATTTTA | 0.43
CGAGTATA | 0.195
ACATATGC | 0.129
CGCTAACA | 0.0344
GCAGACAA | 0.114
AGCACGCC | -0.183
AGGAGGTA | -0.25
CAGACTTC | -0.134
AGACCCAC | -0.154
ATTTTAGA | 0.222
GGTCCAAA | -0.0732
GGCCCGAA | -0.208
ATGGGTTA | 0.183
CCGCTTCA | 0.0258
AGAGAGAT | -0.0126

Sequence | PBM 8-mer E-score
AAAGCCAA | -0.0485
CCTGTAAA | 0.00252
CCCTGAAA | -0.167
AGATATGG | 0.00259
GATCGGGC | -0.199
ACTTTTAA | 0.383
CCACGAGC | -0.173
AGTTTCCC | 0.0554
CGCGAAGA | -0.176
ACTGCGGA | -0.185
ACCGCGCT | -0.128
ACTCTCGC | -0.13
AGGAACGA | -0.198
CCGACTGC | -0.238
ACTCAGCT | -0.00439
ATCTGCAA | 0.0545
AATATAAA | 0.451
AGTCTAGC | -0.158
GACATCCC | -0.116
ATATTACA | 0.386
CTTGGTAA | -0.00388
CGGTTGGC | -0.185

Sequence | PBM 8-mer E-score
GGCAGAAC | -0.0602
GAATCGTC | -0.0999
CTCAACAA | 0.0252
ATTCGAGG | 0.0115
CCAGAGGG | -0.247
ATCTTTGG | 0.0301
GATCCTAA | -0.0755
CGTACCAG | -0.207
AGCCGTCA | -0.216
TTGGACAA | 0.138
ATGTACAT | 0.337
AGATCGTA | 0.0727
ATGGTAAT | 0.239
AACCATGG | -0.0807
AGCCACGG | -0.272
CTAGGTGA | -0.0745
ACGCACGC | -0.16
CGTAGCCA | -0.209
CAGTGCAG | -0.204
ACTGAAGG | -0.209
AAACCTGA | 0.0327
GCGCTTGA | -0.14

Sequence | PBM 8-mer E-score
GCTTAAGC | -0.025
CTCGGATA | -0.00375
CGTCAAGA | -0.19
TAGACCTA | -0.0203
CTTCTTTC | 0.015
GCGCGAGA | -0.134
ATGGGGTC | -0.107
TGAGGTAA | 0.0834
CGTAAACC | -0.0508
ATGATCAT | 0.123
CGAGGGCC | -0.295
AAAGGAGG | -0.167
CAATAATC | 0.19
GAAGTCTC | -0.0692
CGGAAACA | 0.0997
GATACACC | -0.0638
AGGCCGGA | -0.0961
ACGAACGT | -0.161
CATAGACG | -0.0951
CGCGACAA | -0.0861
AGCCACAT | -0.177
AACAGTGT | 0.123

Sequence | PBM 8-mer E-score
CACAAGCC | -0.235
CGACGATC | -0.205
CCCATTTA | 0.0372
CTCACTTC | -0.111
GATTTGGC | -0.105
ATGCCCGA | -0.184
AGCATAGA | -0.149
ACGTCACT | -0.0725
CCACATAA | 0.172
CGGCGCAA | -0.16
TAATATTA | 0.474
CCTCTCGC | -0.254
ATCGCAAT | 0.0839
CGGTTGAA | 0.0195
AGAGACGC | -0.292
ATCGGAGG | -0.325
ACATGCGG | -0.037
AGTGGAGG | -0.269
GCTATGCA | -0.113
CTAGAGCA | -0.206
ATCTACTC | 0.0097
GTACAGGA | -0.0833
